Source: the supplement of paper PMC4604168 (melanoma cell lines)
The other results are listed elsewhere or left out. Most values come without repeats; read them as rough.

test system: MEL-HO; experiment: cell count relative to DMSO control; melanoma cells; higher = more viable cells; settings: library dose: standard library concentration; 72 h
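Also: cells treated in 1,536-well plates, then fixed and DAPI-stained, with nuclei counted from automated high-throughput microscope images.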

SMILES | cell count
O=C(O)c1ccc(-c2c[nH]c3ncc(-c4ccccc4)cc23)cc1C1CCCC1 + O=C1NC(=O)/C(=C/c2ccc(-c3ccc(F)cc3O)o2)S1 [AS252424] (first compound 0.8 µM, partner dose 5 µM) | 68.8%
O=C(Nc1cccc(Cl)c1)Nc1ncc(CCNc2ncnc3ccsc23)s1 + CN(C)S(=O)(=O)c1ccc2c(c1)/C(=C/c1cc3c([nH]1)CCCC3)C(=O)N2 [SU6656] (first compound 0.004 µM, partner dose 2 µM) | 70.9%
O=c1[nH]nc(Sc2ncc([N+](=O)[O-])s2)n1-c1ccc2c(c1)OCCO2 + O=C(/C=C/c1cccnc1)NCCCCC1CCN(C(=O)c2ccccc2)CC1 [FK866] (first compound 1 µM, partner dose 0.05 µM) | 49.6%
O=C(O)c1ccc(-c2c[nH]c3ncc(-c4ccccc4)cc23)cc1C1CCCC1 + CC(C)CCN1c2nc(Nc3cc(F)c(O)c(F)c3)ncc2N(C)C(=O)C1C [BID1870] (first compound 0.8 µM, partner dose 1 µM) | 53.3%
O=C(O)c1ccc(-c2c[nH]c3ncc(-c4ccccc4)cc23)cc1C1CCCC1 + COc1cc2ncnc(Nc3ccc(Oc4ccccc4)cc3)c2cc1OC [SrcI1] (first compound 0.8 µM, partner dose 10 µM) | 69%
O=c1[nH]nc(Sc2ncc([N+](=O)[O-])s2)n1-c1ccc2c(c1)OCCO2 + CC(C)C[C@H](NC(=O)[C@H](Cc1ccccc1)NC(=O)c1cnccn1)B(O)O [Bortezomib] (first compound 1 µM, partner dose 0.005 µM) | 35.9%
